# Measurements taken from the supplement of paper PMC5499739.
# The full ranking holds about 16,000 sequences; the median of “Z-score” is about -0.37, and the highest 2% start at about 3.2. Some of the results follow.
# System: RBM10 RRM1-ZnF (GST-tagged construct)
# Test: RNAcompete 7-mer binding Z-score; higher = stronger binding preference
# Method in brief: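 A designed pool of 241 399 RNAs, each up to 41 nt and transcribed from microarray-derived DNA templates, was used at 1.5 nmol with 20 pmol of GST-tagged RBM10 constructs. The mixture, in 1 ml Hepes pH 7.8 buffer with KCl, NaCl, glycerol, DTT, BSA and glutathione Sepharose beads, was held 30 min at 4°C and then washed four times for 2 min at 4°C. Bound RNA was read out by microarray hybridisation, and enrichment of each heptamer motif was scored as a one-sided Z-score over the probes carrying it.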
row,Sequence,RNAcompete 7-mer binding Z-score
1,GAAGACC,-0.171
2,CUGUUGC,-0.526
3,ACUGUGG,0.803
4,CUCCGUU,-0.792
5,AAAACCC,-0.824
6,UUAUCGC,-0.785
7,ACGUCUC,-0.746
8,AUCGGAU,0.309
9,UGACAUA,-0.37
10,GAGCUAC,-0.207
11,AGGCCGG,0.121
12,GCGGUCC,-0.243
13,AUUGGGU,2.9
14,CCGGGUC,0.527
15,AGGCCCA,-0.818
16,GUUUCUA,-0.633
17,UAGGUAG,2.35
18,AAUGACA,-0.233
19,CAUAGUC,-0.617
20,CACUCGA,-0.578
21,AAAGUGC,-0.181
22,UCCCAUU,-0.938
23,AACCCGA,-0.85

row,Sequence,RNAcompete 7-mer binding Z-score
1,UUGUUUU,-0.301
2,CAUUGAA,-0.282
3,CCGUGGA,0.228
4,AGUUUCG,-0.431
5,CCCUAGC,-0.548
6,CGAACCA,-0.574
7,UGGAUUC,-0.0414
8,AACAAGU,-0.256
9,AGGCAUU,-0.298
10,GGUAUUU,0.192
11,AGCUGCU,-0.477
12,UACCCGG,-0.301
13,GCCACCC,-0.425
14,GCUUCAC,-0.73
15,GAAUCCA,-0.561
16,CAGACAG,0.0398
17,UGGACUC,0.0138
18,CAUUAUG,-0.522
19,UAGGAGA,1.94
20,UAGCCGA,-0.548
21,UGCCCUA,-0.759
22,UUGUCCA,-0.681
23,UGGGGUG,4.74

row,Sequence,RNAcompete 7-mer binding Z-score
1,CCCUUAG,-0.717
2,CAAUCUC,-0.805
3,UCCUCUG,-0.516
4,AAGGCCC,-0.324
5,UAUCCGC,-0.756
6,UAAAAGA,-0.0252
7,CGUCAUC,-0.698
8,UUUGUUC,-0.613
9,AUUAUCA,-0.6
10,UAUGGUU,1.5
11,AGCACUU,-0.529
12,GUCAUCG,-0.152
13,AGAUAAG,0.949
14,UGUUUAG,-0.0155
15,GUUGCUU,-0.422
16,AUACGGG,1.97
17,GGCGUGC,0.738
18,GCUUACU,-0.675
19,UAGACGC,-0.331
20,GACACAG,0.456
21,CAGCCUC,-0.733
22,AGGCGGA,1.33
23,GCGUUUA,-0.535

row,Sequence,RNAcompete 7-mer binding Z-score
1,UAGCCGU,-0.561
2,AUGCGAA,0.00404
3,UGUGUGG,1.89
4,GACUCGC,-0.639
5,AAGUGCG,0.592
6,GGUCUGG,0.79
7,UAUCGUG,-0.0382
8,CAAUUGU,-0.714
9,AUGGAUG,3.28
10,GGGGUAG,4.61
11,GUACCUG,-0.529
12,UAAUGGU,0.8
13,AACGCUA,-0.435
14,CUCUCCG,-0.854
15,CAUCGUG,-0.0837
16,CGAAGUA,-0.0187
17,GAGCGCG,0.4
18,CGUGAGC,-0.279
19,CGCAACU,-0.698
20,UCGCAAU,-0.545
21,CUCUCCA,-0.642
22,ACGACGC,-0.233
23,UGUUUUU,-0.409

row,Sequence,RNAcompete 7-mer binding Z-score
1,CCCUAUC,-0.87
2,GGGACAU,2.04
3,CGACGUU,-0.678
4,GAGUGGA,3.26
5,GUCCUAC,-0.675
6,CCGAUGA,-0.249
7,GCCUGAC,-0.415
8,UUUGGUA,0.365
9,ACUACCC,-0.837
10,AGGCACC,-0.334
11,UACACAG,-0.438
12,CCGAGCA,-0.539
13,UAAGCAG,0.352
14,UUAACAG,-0.152
15,AAGGCGU,0.985
16,UUGUCAG,-0.285
17,AACAGUU,-0.503
18,ACUUACU,-0.733
19,UUCAGGU,0.261
20,CAAUUCU,-0.763
21,AAAUCUC,-0.795
22,CUCAACU,-0.798
23,GACAUUG,0.196

row,Sequence,RNAcompete 7-mer binding Z-score
1,UUAGCUG,-0.509
2,ACGUUGC,-0.47
3,CCCUUAC,-0.876
4,CAUGUUC,-0.698
5,ACCCAGG,-0.113
6,AAGAUCU,-0.652
7,GGUUAGC,1.12
8,AGGGUAG,3.72
9,CUUAGCA,-0.659
10,ACACAGA,-0.116
11,UAUCGUU,-0.694
12,UCGUUAC,-0.571
13,AAUAGAG,0.521
14,GUCCCUC,-0.574
15,UACUUUG,-0.886
16,GACUUGA,-0.496
17,GCACAUU,-0.431
18,UUCAUAU,-0.581
19,AGCCUAC,-0.854
20,CGCGCUC,-0.441
21,GAGAGUU,0.179
22,GGCGACU,0.108
23,CAGAUCC,-0.711

row,Sequence,RNAcompete 7-mer binding Z-score
1,GUAUAAA,0.0235
2,AGGGCAG,2.11
3,UCUCGCG,-0.655
4,UGAUAAA,-0.00896
5,CGGAGUA,1.06
6,ACCCACG,-0.532
7,GGACUCA,0.0463
8,CUCACUC,-0.701
9,GCGCGCC,-0.175
10,GCGAGCG,3.09
11,CCAAGUA,-0.399
12,GCCCUCC,-0.552
13,UUUGCUG,-0.47
14,GGCCCGG,0.0463
15,UAGUCGA,-0.191
16,AACGUGG,1.55
17,GCUAGUU,-0.357
18,GAACGUU,-0.363
19,AAUAGCA,-0.142
20,UAAUACU,-0.62
21,UAAAACA,-0.418
22,UGUCCGU,-0.532
23,UAGGUUC,0.069

row,Sequence,RNAcompete 7-mer binding Z-score
1,GUCUUCU,-0.724
2,CACUCAG,-0.363
3,CUUCCAC,-0.74
4,ACUGAGG,0.966
5,UGUUGAA,0.209
6,UCUUCAA,-0.623
7,CUCAUAG,-0.766
8,GCAUACC,-0.428
9,UCUAAGU,-0.539
10,CAAAAUG,-0.292
11,CGAAUCC,-0.636
12,CCCCUUG,-0.578
13,AAGCGCU,-0.366
14,AAACCAC,-0.519
15,GUGGAUU,1.9
16,UCAACCC,-0.701
17,CCGAAAU,-0.688
18,AACCAUA,-0.714
19,UAAAGAU,-0.126
20,UACCUUG,-0.74
21,UCAAACA,-0.707
22,CUUGUCU,-0.873
